# Experimental data as given in the supplement of paper PMC8728848.
# This is one part of the list.
# How the values were obtained:
# Assay in all cases: glycan array binding signal (z-score within array); higher = stronger binding
# Details in all cases: glycan notation: IUPAC condensed, linker removed
# [1] = biological target: Gal3S(b1-3)[Fuc(a1-4)]GlcNAc
# Procedure, shortened: (§1)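 Glycan array binding is given as a within-array Z-score, which can be read as non-binding when negative. The arrays, 3228 of them, came from the Consortium for Functional Glycomics database and were retained only where the protein sequence was available. Z-scores were averaged across arrays of the same protein sequence at different concentrations or buffers and across linkers.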
# Gal3S(b1-4)Glc = biological target: Gal3S(b1-4)Glc
# Procedure, shortened: as §1
# Gal3S(b1-4)Glc6S = biological target: Gal3S(b1-4)Glc6S
# Procedure, shortened: as §1
# Gal3S(b1-4)GlcNAc = biological target: Gal3S(b1-4)GlcNAc
# Procedure, shortened: as §1
# [2] = biological target: Gal3S(b1-4)[Fuc(a1-3)]Glc6S
# Procedure, shortened: as §1
# [3] = biological target: Gal3S(b1-4)[Fuc(a1-3)]GlcNAc
# Procedure, shortened: as §1
# [4] = biological target: Gal3S(b1-4)[Fuc(a1-3)]GlcNAc6S
# Procedure, shortened: as §1
# Gal3S4S(b1-4)GlcNAc = biological target: Gal3S4S(b1-4)GlcNAc
# Procedure, shortened: as §1
# Gal3S6S(b1-4)GlcNAc = biological target: Gal3S6S(b1-4)GlcNAc
# Procedure, shortened: as §1
# Gal3S6S(b1-4)GlcNAc6S = biological target: Gal3S6S(b1-4)GlcNAc6S
# Procedure, shortened: as §1
# Gal4S(b1-4)GlcNAc = biological target: Gal4S(b1-4)GlcNAc
# Procedure, shortened: as §1
# Gal4S6S(b1-4)GlcNAc = biological target: Gal4S6S(b1-4)GlcNAc
# Procedure, shortened: as §1
# Gal6P(b1-4)GlcNAc = biological target: Gal6P(b1-4)GlcNAc
# Procedure, shortened: as §1
# Gal6S(b1-3)GlcNAc = biological target: Gal6S(b1-3)GlcNAc
# Procedure, shortened: as §1
# Gal6S(b1-3)GlcNAc6S = biological target: Gal6S(b1-3)GlcNAc6S
# Procedure, shortened: as §1
# Gal6S(b1-4)Glc = biological target: Gal6S(b1-4)Glc
# Procedure, shortened: as §1
# Gal6S(b1-4)Glc6S = biological target: Gal6S(b1-4)Glc6S
# Procedure, shortened: as §1
# Gal6S(b1-4)GlcNAc = biological target: Gal6S(b1-4)GlcNAc
# Procedure, shortened: as §1
# Gal6S(b1-4)GlcNAc6S = biological target: Gal6S(b1-4)GlcNAc6S
# Procedure, shortened: as §1
# GalNAc(a1-3)Gal = biological target: GalNAc(a1-3)Gal
# Procedure, shortened: as §1
# GalNAc(a1-3)GalNAc = biological target: GalNAc(a1-3)GalNAc
# Procedure, shortened: as §1
# [5] = biological target: GalNAc(a1-3)GalNAc(b1-3)Gal(a1-4)Gal(b1-4)Glc
# Procedure, shortened: as §1
# [6] = biological target: GalNAc(a1-3)GalNAc(b1-3)Gal(a1-4)Gal(b1-4)GlcNAc
# Procedure, shortened: as §1
# GalNAc(b1-3)Gal = biological target: GalNAc(b1-3)Gal
# Procedure, shortened: as §1
# [7] = biological target: GalNAc(b1-3)Gal(a1-4)Gal(b1-4)GlcNAc
# Procedure, shortened: as §1
# [8] = biological target: GalNAc(b1-3)Gal(a1-4)Gal(b1-4)GlcNAc(b1-3)Gal(b1-4)Glc
# Procedure, shortened: as §1
# [9] = biological target: GalNAc(b1-3)Gal(a1-6)Gal(b1-4)Glc
# Procedure, shortened: as §1
# GalNAc(b1-3)GalNAc = biological target: GalNAc(b1-3)GalNAc
# Procedure, shortened: as §1
# GalNAc(b1-3)GlcNAc = biological target: GalNAc(b1-3)GlcNAc
# Procedure, shortened: as §1
# GalNAc(b1-4)Gal(b1-4)Glc = biological target: GalNAc(b1-4)Gal(b1-4)Glc
# Procedure, shortened: as §1
# GalNAc(b1-4)GlcNAc = biological target: GalNAc(b1-4)GlcNAc
# Procedure, shortened: as §1
# [10] = biological target: GalNAc(b1-4)GlcNAc(b1-2)Man
# Procedure, shortened: as §1
# [11] = biological target: GalNAc(b1-4)GlcNAc(b1-2)Man(a1-3)[GalNAc(b1-4)GlcNAc(b1-2)Man(a1-6)]Man(b1-4)GlcNAc(b1-4)GlcNAc
# Procedure, shortened: as §1
# [12] = biological target: GalNAc(b1-4)GlcNAc(b1-3)GalNAc(b1-4)GlcNAc
# Procedure, shortened: as §1
# GalNAc(b1-4)GlcNAc6S = biological target: GalNAc(b1-4)GlcNAc6S
# Procedure, shortened: as §1
# GalNAc(b1-6)GalNAc = biological target: GalNAc(b1-6)GalNAc
# Procedure, shortened: as §1
# GalNAc3S(b1-4)GlcNAc = biological target: GalNAc3S(b1-4)GlcNAc
# Procedure, shortened: as §1
binder,measurement,setting,value
PkBDPgamma (Plasmodium knowlesi) (protein) SAINQIFLQNNVMDKCNDKRKRGERDWDCPTEKDVCIPDRRYQLCMMEITNLVDTDTHFHSDIIFRKSYSRRRLIYDVGGRGDLLLKKYNNVYSEDLCKDIKWSLQDFGDIIMGTDMEGIGYSLVVQNNLRSIFGTGTSAELDRKKWWNDHKKDIWKAMILSVKEKNRYSAWNCKEDVQIKVEPQIYRWIREWGRDYMSEFREQRRKLNEKCEDKLYYSTMLICTLPPCNNACKSYDEWITGKKKQWDVLSTKFSSVKKAQKIETENIARAYDILKQELNGFNEVTFENEINKRDKLYNYFCVCIVQEARKNTQENVKNVGSGVESKAPSSNPINEAVKSSSGEGKVQEDSAHRSVNEGEGKSSTNEADPGSQPGAAASGGGSGGGTGGGVDLAPQMLRELQETNAALQDVRELLRQQVKEITFLKNTVMECDACGGPLDRNLPPLAPLGPTGGWSHPQFEK,glycan array binding signal (z-score),[1],0.689
same,glycan array binding signal (z-score),Gal3S(b1-4)Glc,0.325
same,glycan array binding signal (z-score),Gal3S(b1-4)Glc6S,-0.138
same,glycan array binding signal (z-score),Gal3S(b1-4)GlcNAc,0.452
same,glycan array binding signal (z-score),[2],0.272
same,glycan array binding signal (z-score),[3],-0.081
same,glycan array binding signal (z-score),[4],-0.049
same,glycan array binding signal (z-score),Gal3S4S(b1-4)GlcNAc,0.437
same,glycan array binding signal (z-score),Gal3S6S(b1-4)GlcNAc,-0.155
same,glycan array binding signal (z-score),Gal3S6S(b1-4)GlcNAc6S,-0.041
same,glycan array binding signal (z-score),Gal4S(b1-4)GlcNAc,-0.583
same,glycan array binding signal (z-score),Gal4S6S(b1-4)GlcNAc,-0.03
same,glycan array binding signal (z-score),Gal6P(b1-4)GlcNAc,-0.45
same,glycan array binding signal (z-score),Gal6S(b1-3)GlcNAc,0.415
same,glycan array binding signal (z-score),Gal6S(b1-3)GlcNAc6S,0.413
same,glycan array binding signal (z-score),Gal6S(b1-4)Glc,-0.205
same,glycan array binding signal (z-score),Gal6S(b1-4)Glc6S,-0.135
same,glycan array binding signal (z-score),Gal6S(b1-4)GlcNAc,0.756
same,glycan array binding signal (z-score),Gal6S(b1-4)GlcNAc6S,-0.398
same,glycan array binding signal (z-score),GalNAc(a1-3)Gal,-0.429
same,glycan array binding signal (z-score),GalNAc(a1-3)GalNAc,0.011
same,glycan array binding signal (z-score),[5],-0.045
same,glycan array binding signal (z-score),[6],-0.303
same,glycan array binding signal (z-score),GalNAc(b1-3)Gal,-0.379
same,glycan array binding signal (z-score),[7],0.65
same,glycan array binding signal (z-score),[8],0.064
same,glycan array binding signal (z-score),[9],-0.242
same,glycan array binding signal (z-score),GalNAc(b1-3)GalNAc,0.271
same,glycan array binding signal (z-score),GalNAc(b1-3)GlcNAc,-0.039
same,glycan array binding signal (z-score),GalNAc(b1-4)Gal(b1-4)Glc,-0.243
same,glycan array binding signal (z-score),GalNAc(b1-4)GlcNAc,-0.002
same,glycan array binding signal (z-score),[10],-0.287
same,glycan array binding signal (z-score),[11],0.206
same,glycan array binding signal (z-score),[12],0.044
same,glycan array binding signal (z-score),GalNAc(b1-4)GlcNAc6S,0.1
same,glycan array binding signal (z-score),GalNAc(b1-6)GalNAc,0.029
same,glycan array binding signal (z-score),GalNAc3S(b1-4)GlcNAc,0.264
